The values that follow come from the RNAGym collection of RNA variant scans (doi:10.7554/elife.90254).

The source gives no read counts; variants with many changes may rest on few reads.

The chains are these.
B1: LINE1-mini (parent)
chain: GGCAGAGCUCAACACAGCGUGGCAAAGUGGCUGUGGCUAGACUGCC

In the series the parent is B1. Put plainly: self-cleavage, relative activity (ratio to wild type); higher = more cleavage; in vitro, sequencing; the parent is a self-cleaving ribozyme.
On to GGCAGUGGUCAACGCAGUGUGGUAAAGUGGCGUUGGCUAGACUGCC, for which the self-cleavage was 0.01.
For CGCAGAGCUGAACGCAGCGUGGCAAAAUGGCUGUGGCUAGACGGCC the value was 0; for GGCAUAGCUCAAAACAGCGUGGCAAAAUGGCUGUGGCUAGACUGCC, 0.07.
For GGAAGAGCUCAACACAGCGUGGCAAAGUGGCUGCGUCUAGAUUCCC, the self-cleavage stood at 0.07.
For GGCGGAGCUCAACACAGCGUGGCCAAGUGGCUGGGGCUAGACUGCC the value was 0.09; for GGCAGAGCUCAACCCAGCAUGGCAAAGUGGGUGUGGCUAGACUGCC, 0.06.
The same measure for GGCAUAGCUCAACACAGUGUGGCAAAGUUGCUGUGGCUAGACUGCC: 0.04; for GACAGAGCUCCACACUGCGUGGCAAAGUGGCUGUGGCUAGACUGCC: 0.02.
For GCGAGAGCUCAACACAGCGUGGCAAAGUGGCUGUUGCUAGACUGCC the value was 0.03.
Turning to GGCAGAGCUCAACACAGCGUGGCGAAGUGGCUGUGCAUAGACUGGC, the self-cleavage is 0.09.
The same measure for GGCACGGCUCAACACACCGUGGCAAAGUGGCUGUGGCUAGCCUGCC: 0.03.
On to GGCAGAGCUCAAGUCAGCGAGGCAAUGUGGCAGUGGGUAGACUGCC, for which the self-cleavage was 0.01.
As for GGCAGAGCUCUUGACGGCGUGGCAAAGUGGAUGUGCCUAGACUGCC, the self-cleavage came to 0.
For GGCAGAGCUCAACACAGCGUGGCAGAGUGGCUGUGGCGAGACUUCC the value was 0.02; for GGCAGUGCUCACCACAGCGUGGCACAGUGGCUGUGGCUAGACUGCC, 0.03.
For GCCAGAGCUCAGCACAGCGUGGCAAAAUGGCUGUGGCUAGACUGCC the value was 0.03.
For GUCAGAGCUCAACACAUCGUGGCAAAGUGGUUGUGGCUAGACUGCC the value was 0.04; for GGCAGAGCUCGACACAGCGGGGCAAAGUGGCUGUGGCUAGAUUGCC, 0.05.
For the variant GGCAGAGCUCAACACAUCGUGGCUCAGUGGCUGGGGCUAGACUGCC, the self-cleavage came out at 0.03.
The same measure for GGCAAAGCGCGACACAGCGUGGAAAAGUGGCUGUGGCUAGACUCCC: 0.02.
The same measure for GGCAGAGCUCAACACAGCGGGACAAAGUGGCUGUGGAUAGACUGCC: 0.01.
For the variant GGCAGAGCUCAAGACCGCGUGGCAAAUUGGCAGUGGAUAGACUGCC, the self-cleavage turned out to be 0.02.
The same measure for GACAGUGCUCAAGACCGCGUGGCAAAUUGGCUGUGCCUCGACUGCC: 0.5; for GGCAGAGAUCAACAGAGUGUGGCAAAGUGGCUGUGGCCAGACUGCC: 0.16.
For GGCAGAGUUCAACACCGCGUGGCAAAGUGGCUGUCGCUAGACUGCA the value was 0.02; for GGCAGAGCUCAACACAGCGUGGCAGAGUGGAUGUGGCUAGAACGCC, 0.23.
The same measure for GGCAGAGCUCAACGAAGCGUGGCAAAGUGGCUGUGGCUAUACUGCC: 0.15; for GGCAGAGCUAACCACAGCGUGGCAAAGUGGGUGUGGCUAGACUGCC: 0.
Take GGCAGCGCUAAACACAGCGUGGCAAAGUGCCUGUGGCUACACUGCC: the self-cleavage stood at 0.01.
The same measure for GGCAGAGUUCAACACAGCGUGGCAUAGUGGCUUUGGCAAGACUGCC: 0.12; for GAGAGAGGUCAACACAGCGUGAAAAAGUGGCUGUGGCUAGAGUGCC: 0.17.
For GGCAGAGCUCGACAAAGCGUUGCAAAGUGGCUGUGGCUAGACUGCC, the self-cleavage amounted to 0.02.
For GGCAGAGCUGAACACCGCGUGGCAAAGUGGCUGUGGCUAGAAUGCC the value was 0.01; for GGCAGAGCUCAACACAGCGUGGCAAAUUGGCUGUUUCUAGAAUGCC, 0.14; for CGCAGAGGUCAACACAGCGUGGCAACGUGGCUGUGGCUAAACUGCC, 0.03.
The same measure for GACAGAGCUCAACACAGCGUGGCAAAUUGGCCGUGGCUAGACUGCC: 0.26; for GACAGAGCUCAACACAGAGUGGCAAAGUGGCUGAGGCUAGACUGCC: 0.03; for GGAAGAACUCAACACAGCGUGGCAAAGUGGCAGUGGCUAGACUGCC: 0.03.
With GGCAGAGCUCAACACAGCUUAGCAAAGUGGCUGUGGAUAGACUGCC, the self-cleavage was found to be 0.04.
The same measure for GGCAGAGCUCAACACAGCGUGACAAAGUGACUGUGGCUACACUGCC: 0.35; for AGUAGAGCUCAACACAGCGCGGCAGAGAGGCUGUGGCUACAGUGCC: 0.39; for GGCAGAGAUCAACACAACGUCGCGAAGUGGCUGUGGCUAGACUGCC: 1.01.
The same measure for GGCAGAGCUCAACACAGCCUGGCAAAGUGGCGGUUGCUAGACUGCC: 0.06; for GGCAGACCUCCACACAGCGUGGUAAAGUGGCUGUGGGUAGACUGCC: 0.01; for GGCAGAGCUCAGAACAGCAUGGCAAAGUGGCUGUGGCUAGACUGCC: 0.07.
As for GGCAGCGCUCAACGCAGCGUGGCAAAGUGUCUGUGGCUAAACUGCC, the self-cleavage worked out at 0.01.
On to GCCAGAGCUCAUGACAGCGUGGCAAAGUGGCUGUGGCUAGACUGAC, for which the self-cleavage turned out to be 0.04.
With GGCACAGCUCAACACAAUGUCCUAAAGUGUCUGUGGCUAGACUGCU, the self-cleavage was 0.04.
As to GGGAGAGCUCAACACAGCGUGGCAAAGGGGCUGUGGCUAGACUUCC, the self-cleavage was determined as 0.45.
With AGCAGAGCUCAACACAGCGUGGCAAAGUGGAUGUGGCUAGAUUUCC, the self-cleavage was found to be 0.04.
For GGCAGACCUCGACGGAGCGUGGCAAAGUGGCUGUGGCUAGUUGGCC the value was 0; for GGCAGAGCUCAACACAGCGUGGCAAAGCGGUUGUGGCUAGACUGCA, 0.05; for GGCAGAGCUCAACACACCGUGGCAAAGUGGCUGAGGCUAGAAUACC, 0.02.
The same measure for GGCAGAGCUCUACACAGGGUGGCAAAGUUGCUGUGGCUAGACUGCC: 0.06.
For GGCAGAGAUCAACACAGCGUAGCAAAGUGCCUGUGGCUAGACUGCC the value was 0.06; for GAGAGAGCUCAACACAGUGUGGCAAAGUGGCGGUGGCUAGACUGCC, 0.08.
